Reference: PubChem BioAssay AID463173 (ICCB-Longwood Screening Facility, Harvard Medical School, 2010)
In all, about 52,000 compounds went through this assay and about 4,300 (8.3%) were called active. Cut-off read from the data, not from the text of the source: active = survival mostly below about 52% (no sharp cut-off); inactive = mostly above about 56%. This is one part of the list.

What follows are compounds tested on DeltatarO mutant (assay: S. aureus survival, RN4220 and DeltatarO strains – OD600, teichoic acid synthesis inhibitors, primary screen (AID 463173)). Settings: S. aureus RN4220 wild type/DeltatarO growth, OD600, 18 h, hits give low values, screened at 18.75 µg/mL (by protocol).
In the case of `O=C(COc1ccccc1F)Nc1ccc(Cl)c(-c2nc3ccccc3[nH]2)c1`, the survival is reported as active: 33%. In the case of `COc1ccc(NC(=O)CSc2nccn2Cc2ccco2)cc1OC`, the survival is reported as inactive: 73%. With `CC1=C(c2ccc(C)c(C)c2)S(=O)(=O)N=C1N1CCC(C(=O)NCc2ccc(Cl)cc2)CC1` the survival was inactive: 75%. In the case of `CCOc1ccc(C=Nc2ccc3c(c2)ncn3C)cc1`, the survival is reported as inactive: 96%. In the case of `O=C(NCCC1=CCCCC1)c1ccc2c(c1)N(Cc1ccc(Cl)cc1)C(=O)c1ccccc1S2=O` (centres undefined), the survival is reported as inactive: 63%. `COc1ccc(-n2c(=O)c3c(c4cc(OC)ccc4n3C)n(C)c2=O)cc1` was tested, and the survival was inactive: 80%. For `CCOc1ccc(NC(=O)Cn2cc(C(=O)c3ccc(CC)cc3)c(=O)c3ccc(C)nc32)cc1`, the survival was inactive: 107%. For `CCOC(=O)c1cccc(NC(=O)c2cnc(N3CCCCC3)c3ccccc23)c1`, the survival was inactive: 99%. In the case of `Cc1noc2ncnc(NCc3ccccc3Cl)c12`, the survival is reported as inactive: 123%. With `CCOc1ccc(NC(=O)C(=O)NCCc2csc(-c3ccc(C)cc3)n2)cc1` the survival was inactive: 81%. With `COc1ccc(NC(=O)c2sc3nc(C)c(C(=O)Nc4ccc(C)cc4C)c(-c4cccs4)c3c2N)cc1` the survival was inactive: 81%. `COc1ccc(OC)c(NC(=O)c2sc3nc4c(cc3c2N)CCCCCC4)c1` was tested, and the survival was inactive: 56%. For `Cc1ccc(C)c(N2CCN(C(c3ccc(F)cc3)c3nnc(-c4ccccc4)o3)CC2)c1` (centres undefined), the survival was active: 16%. With `CCN(Cc1ccccc1)C(=O)Cn1c(=O)oc2cc(S(=O)(=O)N3CCCCCC3)ccc21` the survival was inactive: 98%. With `Cc1ccccc1CSc1cn(CC(=O)N2CCCC2)c2ccccc12` the survival was inactive: 58%. For `Cc1cccc(Cn2c(=O)n(-c3ccc(Cl)c(Cl)c3)c(=O)c3c(C)c(C)sc32)c1`, the survival was inactive: 103%. For `COc1ccccc1NC(=O)c1nc(SCc2ccc(F)cc2)ncc1Cl`, the survival was inactive: 77%. With `CCc1ccc(N2CCn3c2nc2c3c(=O)n(CCc3ccccc3)c(=O)n2C)cc1` the survival was inactive: 82%. For `Cc1ccc2nc(NC(=O)CSc3nccn3Cc3ccccc3)sc2c1`, the survival was active: 37%. With `Cc1oc2c(c1C(=O)Nc1ccc(C(=O)O)cc1)CCCC2` the survival was inactive: 92%. With `CCOCCc1nnc(NC(=O)C(=O)c2cc(C)n(-c3cccc(Cl)c3)c2C)s1` the survival was inactive: 55%. With `COc1cc(NC(=O)c2cc(-c3cccc(Cl)c3)on2)c(OC)cc1Cl` the survival was inactive: 61%. In the case of `Clc1ccc(-c2nc3ccccn3c2Nc2ccc3c(c2)OCCO3)s1`, the survival is reported as inactive: 87%. With `Cc1ccc(N(CC(=O)N2CCN(c3cc(Cl)ccc3C)CC2)S(=O)(=O)c2c(C)noc2C)cc1` the survival was inactive: 74%. `COc1cc(-c2nnn(CC(=O)NCc3ccccc3)n2)cc(OC)c1OC` was tested, and the survival was inactive: 78%. In the case of `Cc1cnc2c(c1SCC(=O)NCc1ccc(F)cc1)c(=O)n(C)c(=O)n2C`, the survival is reported as inactive: 88%. In the case of `c1ccc2c(c1)ncn2-c1ncnc2sc3c(c12)CCCC3`, the survival is reported as inactive: 82%. In the case of `Cc1cccc(N2CCN(c3ncnc4c3c(-c3ccccc3)cn4-c3ccccc3)CC2C)c1` (centres undefined), the survival is reported as inactive: 90%. With `CCOc1ccc(-c2cc(C(=O)N3CCN(c4ccc(C)cc4)C(C)C3)c3ccccc3n2)cc1` (centres undefined) the survival was inactive: 94%. `COc1ccc(-c2nnn(CC(=O)N(c3ccccc3)C(C(=O)NC3CCCC3)c3ccco3)n2)cc1` (centres undefined) was tested, and the survival was inactive: 65%. In the case of `CCC(=O)N1CCc2cc(S(=O)(=O)NCCC(=O)Nc3ccc(OC)c(OC)c3)ccc21`, the survival is reported as inactive: 88%. For `CCOC(=O)c1oc2ccccc2c1CN(C)CCc1ccccc1`, the survival was inactive: 70%. With `COC(=O)/C=C\c1cc(Br)ccc1C#N` the survival was inactive: 87%. For `Cc1ccc(CNC(=O)c2cccc(-n3cnc4cccnc43)c2)cc1`, the survival was inactive: 69%. `COc1cccc(C(=O)Nc2c3c(nn2-c2ccc(Cl)cc2)CS(=O)(=O)C3)c1` was tested, and the survival was inactive: 82%. For `CCc1ccc(NC(=O)CCNS(=O)(=O)c2ccc3c(c2)CCCC(=O)N3)cc1`, the survival was inactive: 94%. `CCN(CC)C(C)C(=O)Nc1c(C)cccc1C` (centres undefined) was tested, and the survival was inactive: 81%. For `COc1ccc(NC(=O)c2oc3ccc(S(=O)(=O)N(C)C4CCCCC4)cc3c2C)cc1`, the survival was inactive: 90%. In the case of `CCOC(=O)c1scc(-c2ccccc2)c1S(=O)(=O)N1CCN(c2ccccc2OC)CC1`, the survival is reported as inactive: 94%. `Cc1ccc(CNC(=O)CSc2nc3n[nH]c(C)c3c(=N)n2-c2cccc(C)c2)cc1` was tested, and the survival was inactive: 128%. With `CC1(C)Cc2c(c(-c3ccccc3)[nH]c(=O)c2C#N)CO1` the survival was inactive: 95%. With `COc1ccc(-c2noc(-c3ccc(N4CCC(C)CC4)c([N+](=O)[O-])c3)n2)cc1OC` the survival was inactive: 59%. For `O=C(NCCc1csc2nc(-c3cccc(F)c3)nn12)c1ccc(Br)o1`, the survival was inactive: 76%. With `CCOc1ccc(NC(=O)Cn2cc(S(=O)(=O)N3CCN(c4ccccc4F)CC3)c3ccccc3c2=O)cc1` the survival was inactive: 89%.
